The target of the experiment is T1, bovine serum albumin (BSA) (bovine, UniProt P02769).
T1 construct: Control antigen coated at 1% in PBS (pH 7.4); also called negative control antigen
Put plainly: phage ELISA, 1% BSA coated, anti-M13-HRP detection. As to the method:
Selected single-chain phage antibodies that were obtained in the screens described above were validated in ELISA for specific enterococcal binding activity, i.e. binding to one or more enterococcal strains prepared as described supra. 2.5×10⁸ bacteria were coated overnight at 4° C. to Maxisorp™ ELISA plates in 50 μl 50 mM carbonate buffer, pH 9.6. As negative controls, the complex antigens 2% ELK and 1% BSA both in PBS (pH 7.4) were coated. Wells were washed in PBS containing 0.1% (v/v) Tween-20 and blocked with 300 μl PBS containing 2% ELK for at least 1 hour at room temperature. The selected single-chain phage antibodies were incubated for 15 minutes in an equal volume of PBS containing 2% ELK to obtain blocked phage antibodies. The plates were emptied and the blocked single-chain phage antibodies were added to the wells. Incubation was allowed to proceed for one hour at room temperature, the plates were washed in PBS containing 0.1% (v/v) Tween-20 and bound phage antibodies were detected using an anti-M13 antibody conjugated to peroxidase. Absorbance at 492 nm was measured using a spectrophotometer. As a control, the procedure was performed simultaneously without single-chain phage antibody and with a negative control single-chain phage antibody directed against West Nile virus envelope protein (SC04-374).
A general note: ELISA stands for enzyme-linked immunosorbent assay.

T1 sequence (P02769 25-607 limits assumed): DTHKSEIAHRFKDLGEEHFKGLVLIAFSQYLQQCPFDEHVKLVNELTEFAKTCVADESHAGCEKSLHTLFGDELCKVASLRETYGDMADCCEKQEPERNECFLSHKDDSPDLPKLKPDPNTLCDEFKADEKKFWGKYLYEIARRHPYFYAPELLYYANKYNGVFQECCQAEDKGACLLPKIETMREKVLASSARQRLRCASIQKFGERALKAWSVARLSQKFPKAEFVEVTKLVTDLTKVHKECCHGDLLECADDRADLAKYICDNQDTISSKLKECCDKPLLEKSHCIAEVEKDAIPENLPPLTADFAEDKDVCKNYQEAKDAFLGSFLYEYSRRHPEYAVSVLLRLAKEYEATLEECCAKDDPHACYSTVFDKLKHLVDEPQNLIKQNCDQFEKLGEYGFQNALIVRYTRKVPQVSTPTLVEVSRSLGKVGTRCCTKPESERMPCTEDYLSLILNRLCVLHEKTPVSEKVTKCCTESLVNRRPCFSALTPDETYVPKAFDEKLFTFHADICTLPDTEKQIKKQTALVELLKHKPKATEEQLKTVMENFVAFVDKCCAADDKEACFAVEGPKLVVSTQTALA

B1: SC06-086 (scFv)
scFv: EVQLVESGAEVKKPGSSVKVSCKASGGTFSSYAISWVRQAPGQGLEWMGGIIPIFGTANYAQKFQGRVTITADESTSTAYMELSSLRSEDTAVYYCARGYAATDYGMDVWGQGTTVTVSSGTGGSGGTGSGTGGST[about 100 residues cut from this listing]FGPGTKVDIK
notes: Vl 137-243); also called single-chain phage antibody SC06-086
B1 yielded an OD492 nm of 0.062 OD492 nm.

The record behind these values is patent publication US20090169562A1 (CRUCELL HOLLAND B V, published 2009).
